Measurements from the supplement of paper PMC4604168 (melanoma cell lines).
The other results are listed elsewhere or left out. Most values come without repeats; read them as rough.

Columns and labels:
Assay in all cases: cell count relative to DMSO control; melanoma cells; higher = more viable cells
Conditions in all cases: library dose: low library concentration; 72 h
WM115 = tested on: WM115
WM1716 = tested on: WM1716
WM1745 = tested on: WM1745
WM3526 = tested on: WM3526
WM3619 = tested on: WM3619
WM451Lu = tested on: WM451Lu
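Note: cell number obtained by counting DAPI-stained nuclei in high-throughput microscope images with image analysis software, screen run in 1,536-well plates.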

| Compound | cell count (WM115) | cell count (WM1716) | cell count (WM1745) | cell count (WM3526) | cell count (WM3619) | cell count (WM451Lu) |
| --- | --- | --- | --- | --- | --- | --- |
| C[C@]12O[C@H](C[C@]1(O)CO)n1c3ccccc3c3c4c(c5c6ccccc6n2c5c31)CNC4=O [Lestaurtinib] + Nc1nc(F)nc2c1ncn2[C@@H]1O[C@H](CO)[C@@H](O)[C@@H]1O [fludarabine] (first compound 0.004 µM, partner dose 0.2 µM) | 92.6% | 98.2% | 89.1% | 27.7% | 90.3% | 60.7% |
| Cn1cc(C2=C(c3cn(C4CCN(Cc5ccccn5)CC4)c4ccccc34)C(=O)NC2=O)c2ccccc21 [Enzastaurin] + CS(=O)(=O)CCNCc1ccc(-c2ccc3ncnc(Nc4ccc(OCc5cccc(F)c5)c(Cl)c4)c3c2)o1 [lapatinib] (first compound 0.8 µM, partner dose 0.8 µM) | 97.6% | 92.5% | 85.8% | 93.5% | 87.6% | 98.7% |
| N.N.[Cl][Pt][Cl] [cisplatin] + CCN(CC)CCCCNc1ncc2cc(-c3cc(OC)cc(OC)c3)c(NC(=O)NC(C)(C)C)nc2n1 [PD173074] (first compound 1.6 µM, partner dose 0.1 µM) | 91.8% | 105% | 89.7% | 94.5% | 101% | 89.7% |
| Cn1cc(C2=C(c3cn(C4CCN(Cc5ccccn5)CC4)c4ccccc34)C(=O)NC2=O)c2ccccc21 [Enzastaurin] + NC(=O)c1ccc(N(C(N)=O)c2c(F)cccc2F)nc1-c1ccc(F)cc1F [VX702] (first compound 0.8 µM, partner dose 0.4 µM) | 108% | 100% | 89.4% | 88.4% | 104% | 140% |
| Cn1cc(C2=C(c3cn(C4CCN(Cc5ccccn5)CC4)c4ccccc34)C(=O)NC2=O)c2ccccc21 [Enzastaurin] + O=C(CCCCCCC(=O)Nc1ccccc1)NO [vorinostat] (first compound 0.8 µM, partner dose 0.08 µM) | 109% | 121% | 94.4% | 122% | 54.9% | 119% |
| C[C@]12O[C@H](C[C@]1(O)CO)n1c3ccccc3c3c4c(c5c6ccccc6n2c5c31)CNC4=O [Lestaurtinib] + c1cc(-c2cnn3cc(-c4ccc(OCCN5CCCCC5)cc4)cnc23)ccn1 [Dorsomorphin] (first compound 0.004 µM, partner dose 0.4 µM) | 90.7% | 104% | 88.6% | 77% | 108% | 76.1% |
| C[C@]12O[C@H](C[C@]1(O)CO)n1c3ccccc3c3c4c(c5c6ccccc6n2c5c31)CNC4=O [Lestaurtinib] + O=C(Nc1cccc(Cl)c1)Nc1ncc(CCNc2ncnc3ccsc23)s1 [SNS314] (first compound 0.004 µM, partner dose 0.0008 µM) | 87.5% | 118% | 111% | 117% | 125% | 95.1% |
| C[As](C)SC[C@H](NC(=O)CC[C@H](N)C(=O)O)C(=O)NCC(=O)O [Darinaparsin] + O=c1cc(-c2cccc3c2Sc2ccccc2S3)oc(N2CCOCC2)c1 [KU55933] (first compound 0.4 µM, partner dose 1 µM) | 86.8% | 99.2% | 98.3% | 103% | 114% | 100% |
| Cn1cc(C2=C(c3cn(C4CCN(Cc5ccccn5)CC4)c4ccccc34)C(=O)NC2=O)c2ccccc21 [Enzastaurin] + Cc1cc(N2CCOCC2)cc2[nH]c(-c3c(NC[C@@H](O)c4cccc(Cl)c4)cc[nH]c3=O)nc12 [BMS536924] (first compound 0.8 µM, partner dose 0.2 µM) | 118% | 108% | 75.8% | 96.5% | 94% | 115% |
| Cn1cc(C2=C(c3cn(C4CCN(Cc5ccccn5)CC4)c4ccccc34)C(=O)NC2=O)c2ccccc21 [Enzastaurin] + COCC[n+]1c2c(n(Cc3cnccn3)c1C)C(=O)c1ccccc1C2=O [YM155] (first compound 0.8 µM, partner dose 0.0004 µM) | 107% | 85.5% | 99.7% | 72.3% | 110% | 66.4% |
| C[C@]12O[C@H](C[C@]1(O)CO)n1c3ccccc3c3c4c(c5c6ccccc6n2c5c31)CNC4=O [Lestaurtinib] + O=C(O)[C@@H]1[O][Sb](=[O])([O][Sb]2(=[O])[O][C@H]([C@H](O)CO)[C@H](O)[C@H](C(=O)O)[O]2)[O][C@H]([C@H](O)CO)[C@@H]1O [stibogluconate] (first compound 0.004 µM, partner dose 2 µM) | 104% | 105% | 106% | 102% | 150% | 101% |
| N.N.[Cl][Pt][Cl] [cisplatin] + O=C(Oc1ccc([N+](=O)[O-])cc1)N1CCC(C(O)(c2ccc3c(c2)OCO3)c2ccc3c(c2)OCO3)CC1 [JZL184] (first compound 1.6 µM, partner dose 1 µM) | 94% | 94.6% | 95.5% | 89.1% | 104% | 95.5% |
| Cn1cc(C2=C(c3cn(C4CCN(Cc5ccccn5)CC4)c4ccccc34)C(=O)NC2=O)c2ccccc21 [Enzastaurin] + Cc1ccc(NC(=O)c2cccc(N(C)C)c2)cc1NC(=O)c1ccc(O)cc1 [ZM336372] (first compound 0.8 µM, partner dose 2 µM) | 107% | 120% | 87.7% | 84.4% | 107% | 114% |
| Cn1cc(C2=C(c3cn(C4CCN(Cc5ccccn5)CC4)c4ccccc34)C(=O)NC2=O)c2ccccc21 [Enzastaurin] + CN(C)S(=O)(=O)c1ccc2c(c1)/C(=C/c1cc3c([nH]1)CCCC3)C(=O)N2 [SU6656] (first compound 0.8 µM, partner dose 0.4 µM) | 81.9% | 112% | 94.5% | 93% | 114% | 119% |
| C[As](C)SC[C@H](NC(=O)CC[C@H](N)C(=O)O)C(=O)NCC(=O)O [Darinaparsin] + CO[C@@H]1[C@H](N(C)C(=O)c2ccccc2)C[C@H]2O[C@]1(C)n1c3ccccc3c3c4c(c5c6ccccc6n2c5c31)C(=O)NC4 [Midostaurin] (first compound 0.4 µM, partner dose 0.08 µM) | 93.7% | 76.7% | 96.8% | 95.4% | 98.9% | 85% |
| Cn1cc(C2=C(c3cn(C4CCN(Cc5ccccn5)CC4)c4ccccc34)C(=O)NC2=O)c2ccccc21 [Enzastaurin] + C=C(c1ccc(C(=O)O)cc1)c1cc2c(cc1C)C(C)(C)CCC2(C)C [Bexarotene] (first compound 0.8 µM, partner dose 2 µM) | 110% | 96.8% | 85.7% | 107% | 82% | 104% |
| N.N.[Cl][Pt][Cl] [cisplatin] + CC(C)(C)c1cnc(CSc2cnc(NC(=O)C3CCNCC3)s2)o1 [SNS-032] (first compound 1.6 µM, partner dose 0.01 µM) | 103% | 116% | 97.9% | 97.6% | 115% | 89.9% |
| Cn1cc(C2=C(c3cn(C4CCN(Cc5ccccn5)CC4)c4ccccc34)C(=O)NC2=O)c2ccccc21 [Enzastaurin] + Cc1cc(SCc2sc(-c3ccc(C(F)(F)F)c(F)c3)nc2C)ccc1OCC(=O)O [GW0742] (first compound 0.8 µM, partner dose 2 µM) | 105% | 94.7% | 90.4% | 94.4% | 78.5% | 74.3% |
| C[C@]12O[C@H](C[C@]1(O)CO)n1c3ccccc3c3c4c(c5c6ccccc6n2c5c31)CNC4=O [Lestaurtinib] + OCc1c[nH]c2ccccc12 [Indole-3-carbinol] (first compound 0.004 µM, partner dose 0.8 µM) | 107% | 122% | 109% | 79.3% | 126% | 90.8% |
| N.N.[Cl][Pt][Cl] [cisplatin] + Cc1nc(Nc2ncc(C(=O)Nc3c(C)cccc3Cl)s2)cc(N2CCN(CCO)CC2)n1 [dasatanib] (first compound 1.6 µM, partner dose 0.004 µM) | 83.9% | 96.4% | 82% | 76.8% | 79.9% | 93.1% |
| C[As](C)SC[C@H](NC(=O)CC[C@H](N)C(=O)O)C(=O)NCC(=O)O [Darinaparsin] + NCC(=O)Nc1ccc(-n2nc(C(F)(F)F)cc2-c2ccc3c(ccc4ccccc43)c2)cc1 [OSU03012] (first compound 0.4 µM, partner dose 1 µM) | 87.1% | 95.8% | 92.9% | 51.8% | 103% | 76.5% |
| C[C@]12O[C@H](C[C@]1(O)CO)n1c3ccccc3c3c4c(c5c6ccccc6n2c5c31)CNC4=O [Lestaurtinib] + Cc1cc([N+](=O)[O-])ccc1NS(=O)(=O)c1cc(Cl)ccc1Cl [FH535] (first compound 0.004 µM, partner dose 1 µM) | 87.5% | 101% | 76% | 88.9% | 106% | 100% |
| N.N.[Cl][Pt][Cl] [cisplatin] + CN(NC(=O)CC(=O)NN(C)C(=S)c1ccccc1)C(=S)c1ccccc1 [STA4783] (first compound 1.6 µM, partner dose 0.006 µM) | 91% | 125% | 115% | 83.5% | 84.7% | 108% |
| Cn1cc(C2=C(c3cn(C4CCN(Cc5ccccn5)CC4)c4ccccc34)C(=O)NC2=O)c2ccccc21 [Enzastaurin] + CCCCCCCCc1ccc(CCC(N)(CO)CO)cc1 [fingolimod] (first compound 0.8 µM, partner dose 2 µM) | 106% | 91.7% | 84.9% | 93% | 63.7% | 119% |
